In patent US20190345207A1 (Pieris, published 2019):

T1: human LAG-3 on CHO cells stably transfected with huLAG-3 (CHO-huLAG-3) (human, UniProt P18627 23-525)
T1 construct: whole, on cells; also called CHO::human LAG-3
T1 sequence (looked up): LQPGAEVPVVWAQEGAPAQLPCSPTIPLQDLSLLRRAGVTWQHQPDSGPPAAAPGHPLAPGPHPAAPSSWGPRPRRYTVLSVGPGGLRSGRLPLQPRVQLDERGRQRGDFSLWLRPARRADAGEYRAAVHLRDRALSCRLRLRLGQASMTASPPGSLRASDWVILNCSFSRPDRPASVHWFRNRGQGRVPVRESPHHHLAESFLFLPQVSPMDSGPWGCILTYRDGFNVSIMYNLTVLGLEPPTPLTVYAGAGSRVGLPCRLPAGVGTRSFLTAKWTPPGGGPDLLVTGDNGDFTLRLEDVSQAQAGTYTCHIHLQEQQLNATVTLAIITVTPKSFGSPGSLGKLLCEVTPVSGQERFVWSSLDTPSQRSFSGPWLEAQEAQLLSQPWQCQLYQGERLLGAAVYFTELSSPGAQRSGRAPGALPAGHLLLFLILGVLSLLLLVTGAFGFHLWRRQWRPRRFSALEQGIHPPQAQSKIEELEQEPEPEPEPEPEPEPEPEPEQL

T2: huLAG-3-Fc (human LAG-3 extracellular domain fused to human IgG1 Fc fragment, R&D systems) (human, UniProt P18627 23-450)
T2 construct: extracellular domain; Bought from R&D Systems; also called human LAG-3-Fc fusion; not shown: human IgG1 Fc fragment
T2 sequence (looked up): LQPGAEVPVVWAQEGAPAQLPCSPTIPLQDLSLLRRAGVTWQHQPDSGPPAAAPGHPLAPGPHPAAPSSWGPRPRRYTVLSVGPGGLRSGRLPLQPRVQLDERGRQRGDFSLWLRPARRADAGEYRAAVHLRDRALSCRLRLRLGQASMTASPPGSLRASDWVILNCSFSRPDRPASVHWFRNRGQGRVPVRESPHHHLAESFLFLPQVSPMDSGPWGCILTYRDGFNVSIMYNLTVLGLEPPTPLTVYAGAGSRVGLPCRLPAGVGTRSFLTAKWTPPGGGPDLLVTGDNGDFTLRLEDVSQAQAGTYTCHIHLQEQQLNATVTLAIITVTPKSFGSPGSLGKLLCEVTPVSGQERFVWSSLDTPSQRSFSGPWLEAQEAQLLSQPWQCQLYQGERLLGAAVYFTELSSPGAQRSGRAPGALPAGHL


Legend:
[1] = biological target: T1, human LAG-3 on CHO cells stably …; experiment: FACS on CHO-huLAG-3 cells
[2] = biological target: T1, human LAG-3 on CHO cells stably …; experiment: FACS on transfected CHO cells
[3] = biological target: T3, cynomolgus LAG-3 on CHO cells stably transfected with cyLAG-3 (CHO-cyLAG-3) (cynomolgus monkey); experiment: FACS on transfected CHO cells
T3 construct: whole, on cells; also called CHO::cynomolgus LAG-3

[4] = biological target: T2, huLAG-3-Fc (human LAG-3 extracellular …); experiment: SPR, Fc-captured target, mutein analyte
Method: The anti-human IgG Fc antibody (GE Healthcare) was immobilized on a CM5 sensor chip using standard amine chemistry: the carboxyl groups on the chip were activated using 1-ethyl-3-(3-dimethylaminopropyl)-carbodiimide (EDC) and N-hydroxysuccinimide (NHS). […] Residual non-reacted NHS-esters were blocked by passing a solution of 1M ethanolamine across the surface. The reference channel was treated in an analogous manner.
All measurements were performed at 25° C. […] Prior to the protein measurements, three startup cycles were performed for conditioning purposes. […] Double referencing was used and the 1:1 binding model was used to fit the raw data.

[5] = biological target: T2, huLAG-3-Fc (human LAG-3 extracellular …); experiment: competition FACS, 3 nM huLAG-3-Fc vs MHC class II on A375 cells
[6] = biological target: T3, cynomolgus LAG-3 on CHO cells stably …; experiment: FACS on Flp-In CHO cells stably transfected with cynomolgus LAG-3; bound mutein detected with rabbit anti-TLPC Alexa 488; GeoMean [Fl1-H Log] against concentration [nM] [lower panel]

| Binder | binding result [1] | EC50 [2] | EC50 [3] | Kd [4] | koff [4] | kon [4] | IC50 [5] | EC50 (read off the curve) [6] |
| --- | --- | --- | --- | --- | --- | --- | --- | --- |
| negative control lipocalin mutein (SEQ ID NO: 3) (designed binder, Negative control hTlc mutein) ASDEEIQDVSGTWYLKAMTVDRECPEMNLESVTPMTLTTLEGGNLEAKVTMLISGRSQEVKAVLEKTDEPGKYTADGGKHVAYIIRSHVKDHYIFYSEGECHGKPVPGVWLVGRDPKNNLEALEDFEKAAGARGLSTESILIPRQSETSSPG | no binding (tested: 1 uM) |  |  |  |  |  |  |  |
| lipocalin mutein SEQ ID NO: 19 (designed binder, Parental LAG-3 specific hTlc mutein; also called parental lipocalin mutein) ASDEEIQDVPGTWYLKAMTVSGEDPEMMLESVTPMTLTTLEGGNLEARVTVLIDGRCQEVKNVLEKTDEPGKYTEDGGKHVDYIIRSHVKDHYIFYFEGEGQGTPGRMVALVGRDPTNNLEALEDFEKAAGARGLSTESILIPRQSETCSPG |  | 4.09 nM | 26.2 nM | 2.74 nM | 0.000718 s⁻¹ | 262000 M⁻¹ s⁻¹ | 1.2 nM |  |
| lipocalin mutein SEQ ID NO: 92 (designed binder, also called optimized LAG-3 specific lipocalin mutein) ASDEEIQDVSGTWYLKAMTVDSDCFWIDDVSVTPMTLTTLEGGNLEAKVTMDIFGFWQEVEAVLERTDEPGKYTADGGKHVAYIIRSHVKDHYIFYSEGECAGYPVPGVWLVGRDPKNNLEALEDFEKAAGARGLSTESILIPRQSETSSPGSAWSHPQFEK |  | 0.76 nM | 111 nM | 0.146 nM | 0.000809 s⁻¹ | 5.54e+06 M⁻¹ s⁻¹ | 0.23 nM |  |
| lipocalin mutein SEQ ID NO: 85 (designed binder, also called optimized LAG-3 specific lipocalin mutein) TSDQEIQDVSGTWYLKAMTVDSDCFWIDDVSVTPMTLTTLEGGNLEAKVTMDIFGFWQEVEAVLGKTDEPGKYTADGGKHAAYIIRSHVKDHYIFYSEGECAGYPVPGVWLVGRDPKNNLEALEDFEKAAGARGLSTESILIPRQSETSAPGSAWSHPQFEK |  | 0.22 nM | 9.8 nM | 0.053 nM | 0.00028 s⁻¹ | 5.3e+06 M⁻¹ s⁻¹ | 0.38 nM |  |
| lipocalin mutein SEQ ID NO: 89 (designed binder, also called optimized LAG-3 specific lipocalin mutein) ASDEEIQDVSGTWYLKAMTVDSDCFWIDDVSVTPMTLTTLEGGNLEAKVTMDIFGFWQDVKAVLEKTDEPGKYTADGGKHDAYIISSHVKDNYIFYSEGECAGYPVPGVWLVGRDPKNNQEALEDFEKAAGARGLSTESILIPRQSETSSPGSAWSHPQFEK |  | 0.85 nM | 41.7 nM | 0.095 nM | 0.000467 s⁻¹ | 4.93e+06 M⁻¹ s⁻¹ | 0.58 nM |  |
| lipocalin mutein SEQ ID NO: 94 (designed binder, also called optimized LAG-3 specific lipocalin mutein) ASDEEFQDVSGTWYLKAMTVDSDCFWIDDVSVTPMTLTTLEGGNLEAKVTMDIFGFWQEVEAVLEKTDAPGKYTADGGKHVAYINRSHEKDHYIFYSEGECAGYPVPGVWLVGRDPKNNLEALEDFEKAAGARGLSTESILIPRQSETSSPGSAWSHPQFEK |  | 0.53 nM | 117 nM | 0.144 nM | 0.0007 s⁻¹ | 4.87e+06 M⁻¹ s⁻¹ | 0.41 nM |  |
| lipocalin mutein SEQ ID NO: 93 (designed binder, also called optimized LAG-3 specific lipocalin mutein) TSDEEIQDVSGTWYLKAMTVDSDCFWIDDVSVTPMTLTTLEGGNLEAKVTMDIFGFWQEVEAVLEKTDEPGKYTAGGGKHVAYINRSHVKDHYVFYSEGECAGYPVPGVWLVGRDPKNNLEALEDFEKAAGARGLSTESILIPRQSETSSPGSAWSHPQFEK |  | 0.69 nM | 42.7 nM | 0.105 nM | 0.000463 s⁻¹ | 4.41e+06 M⁻¹ s⁻¹ | 0.29 nM |  |
| lipocalin mutein SEQ ID NO: 88 (designed binder, also called optimized LAG-3 specific lipocalin mutein) TSDEEIQDVSGTWYLKAMTVDSDCFWIDDVSVTPMTLTTLEGGNLEAKATMDIFGFWQEVEAVLEKTDEPGKYTTDGGKHVAYIIRSHVKDHHIFYSEGECAGYPVPGVWLVGRDPKNNLEALEDFEKAAGARGLSTESILIPRQSETSSPGSAWSHPQFEK |  | 0.18 nM | 9.3 nM | 0.05 nM | 0.000288 s⁻¹ | 5.81e+06 M⁻¹ s⁻¹ | 1.4 nM |  |
| lipocalin mutein SEQ ID NO: 91 (designed binder, also called optimized LAG-3 specific lipocalin mutein) ASDEEIQDVSGTWYLKAMTVDSDCFWIDDVSVTPMTLTTLEGGNLEAKVTMDIFGFWQDVEAVLEKTDEPGKYTADGGKHVAYIIRSHVKDHYIFYSEGECAGYPVPGVWLVGRDPKNNLEALEDFEKAAGARGLSTESILIPRLSETSSPGSAWSHPQFEK |  | 0.61 nM | 74.3 nM | 0.119 nM | 0.000662 s⁻¹ | 5.56e+06 M⁻¹ s⁻¹ | 0.39 nM |  |
| lipocalin mutein SEQ ID NO: 86 (designed binder, also called optimized LAG-3 specific lipocalin mutein) TSDEEIQDVSGTWYLKAMTVDSDCFWIDDVSVTPMTLTTLEDGNLEAKVTMDIFGFWQEVEAVLEKTDEPGKYTADGGKHAAYIIRSHVKDHYIFYSEGECAGYPVPGVWLVGRDPKNNLEALEDFEKAAGARGLSTESILIPRQGETSSPGSAWSHPQFEK |  | 1.52 nM | 21.2 nM | 0.077 nM | 0.00037 s⁻¹ | 4.78e+06 M⁻¹ s⁻¹ | 0.78 nM |  |
| lipocalin mutein SEQ ID NO: 90 (designed binder, also called optimized LAG-3 specific lipocalin mutein) ASDEEIQDVSGMWYLKAMTVDSDCFWIDDVSVTPMTLTTHEGGNLEAKVTMDIFGFWQEVEAVLEKTDEPGKYTADGGKHVAYISRSHVKDHYIFYSEGECAGYPVPGVWLVGRDPKNNLEALEDFEKAAGARGLSTESILIPRQSETSSPGSAWSHPQFEK |  | 0.02 nM | 103 nM | 0.13 nM | 0.000618 s⁻¹ | 4.75e+06 M⁻¹ s⁻¹ | 0.25 nM |  |
| lipocalin mutein SEQ ID NO: 87 (designed binder, also called optimized LAG-3 specific lipocalin mutein) ASGEEIQDVSGTWYLKAMTVDSDCFWIDDVSVTPMTLTTLEGGNLEAKVTMDIFGFWQEVKAVLEKTDEPGKYTADGGKHDAYIIRSHVKDHYIFYSEGECAGYPVPGVWLVGRDPKNNLEALEDFEKAAGARGLSTESILIPWQSEPSSPGSAWSHPQFEK |  | 0.95 nM | 21.1 nM | 0.087 nM | 0.000508 s⁻¹ | 5.85e+06 M⁻¹ s⁻¹ | 0.32 nM |  |
| lipocalin mutein SEQ ID NO: 28 (designed binder, also called optimized LAG-3 specific lipocalin mutein) ASDEEIQDVPGTWYLKAMTVSDEDPEMTLESVTPMTLTTLEGGNLEARVTVLIDGRCQEVKNVLEKTDEPGKYTEDGGKLVDYIIRSHVKDHYIFYFEGEGQGTPGRMLALVGRDPTNNLEALEDFEKAAGARGLSTESILIPRQSETCSPGSAWSHPQFEK |  | 2.19 nM | 21 nM | 0.883 nM | 0.000409 s⁻¹ | 463000 M⁻¹ s⁻¹ | 0.55 nM |  |
| SEQ ID NO: 11 (designed binder, written as printed on the sheet) lipocalin mutein: TSDEEIQDVSGTWYLKAMTVDSDCFWIDDVSVTPMTLTTLEGGNLEAKATMDIFGFWQEVEAVLEKTDEPGKYTTDGGKHVAYIIRSHVKDHHIFYSEGECAGYPVPGVWLVGRDPKNNLEALEDFEKAAGARGLSTESILIPRQSETSSPGP |  |  |  |  |  |  |  | ~10 nM |
